± gives the uncertainty stated by the source. Shown are siRNA guide strands that differ only in the seed, positions 2 to 7.
Assays:
3LL = experiment: cell viability relative to siNT1 control; higher = less toxic; conditions: concentration: 10 nM; 96 h; Mus musculus;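 further: Luminescence-based viability of cells reverse transfected in 384-well plates with lipid-complexed siRNAs built on a non-toxic 19mer backbone whose passenger strand carries 2′-O-methyl groups at positions 1 and 2, triplicates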
H460 = experiment: cell viability relative to lipid-only control; HeyA8 human ovarian and H460 human lung cancer; M565 mouse liver and 3LL mouse lung cancer; siNT1 is a non-toxic control siRNA; higher = less toxic; conditions: concentration: 10 nM; 96 h; Homo sapiens
Description: (§1)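 Arrayed screen of 4096 siRNA duplexes, each carrying one of all possible 6mer seeds at guide-strand positions 2-7 in a fixed neutral 19mer scaffold (constant flanks: U at position 1, then ACAUGUAAACCA, plus a 3' AA overhang). The passenger strand is 2'-O-methylated at positions 1-2 so only the guide strand loads into RISC. Duplexes were reverse-transfected at 10 nM with RNAiMAX in triplicate in 384-well plates; viability was read by CellTiter-Glo ATP content 96 h after transfection. Values are % viability normalised to lipid-only wells (HeyA8, H460, M565) or to siNT1 (3LL).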

HeyA8 = experiment: as above; conditions: concentration: 10 nM; 96 h; Homo sapiens
Description: as §1

M565 = experiment: as above; conditions: concentration: 10 nM; 96 h; Mus musculus
Description: as §1
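Wherever cell viability relative to lipid-only control is given: reverse lipid transfection in 384-well plates, in triplicate, of duplexes on a non-toxic 19mer backbone with passenger strand 2′-O-methylated at positions 1 and 2, luminescence viability read-out.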

Sequence	cell viability (3LL) [%]	cell viability (H460) [%]	cell viability (HeyA8) [%]	cell viability (M565) [%]
UCUUACCACAUGUAAACCAAA	89.8 ± 16	48.9 ± 1.7	37.6 ± 3.8	38.4 ± 9.1
UUUUAUGACAUGUAAACCAAA	100 ± 9.7	70.3 ± 7.1	98.3 ± 3.2	96.1 ± 14
UCCUUGCACAUGUAAACCAAA	34.8 ± 5.6	24.7 ± 0.77	26.3 ± 1.4	16.7 ± 2.8
UAAGAUAACAUGUAAACCAAA	88.5 ± 5.3	64.9 ± 5.8	84.2 ± 14	79.1 ± 8.1
UCUCACAACAUGUAAACCAAA	94.8 ± 19	16.3 ± 5.8	86.8 ± 6.6	69.5 ± 7.3
UUUCCUGACAUGUAAACCAAA	91.1 ± 5.3	79.3 ± 8.8	92.6 ± 7	76 ± 6.1
UCACAUUACAUGUAAACCAAA	91.8 ± 16	26.7 ± 1.4	78.2 ± 1	83.1 ± 16
UUCACGGACAUGUAAACCAAA	90.9 ± 23	33.1 ± 3	83.5 ± 11	41.7 ± 7.5
UUCUAUGACAUGUAAACCAAA	99.6 ± 5.5	55.8 ± 5.5	91.6 ± 7.2	82.3 ± 9.8
UUGGUAAACAUGUAAACCAAA	92.7 ± 6.2	71.6 ± 6.8	84.3 ± 6.4	98.6 ± 11
UCCAACGACAUGUAAACCAAA	111 ± 14	71 ± 20	82.4 ± 7.5	76.9 ± 2.1
UUUAGGCACAUGUAAACCAAA	68.1 ± 5.4	69.3 ± 3.3	62.3 ± 3.9	38.1 ± 0.6
UCACCGUACAUGUAAACCAAA	77 ± 15	38.05 ± 0.049	66.9 ± 7.9	32.2 ± 2.1
UAGCGAUACAUGUAAACCAAA	86 ± 11	77.2 ± 17	68.1 ± 8.8	80.7 ± 8
UGGGAUAACAUGUAAACCAAA	87.2 ± 11	53.6 ± 3.2	38.8 ± 2.9	41.9 ± 4.9
UAGUAACACAUGUAAACCAAA	63.3 ± 7.5	51.3 ± 6.4	10.4 ± 1.1	48.2 ± 3.1
UUGUGACACAUGUAAACCAAA	9.43 ± 1.4	23.4 ± 1.9	28.9 ± 3.7	87.7 ± 7.2
UUAUCUUACAUGUAAACCAAA	79.5 ± 10	70.1 ± 6.8	78.5 ± 9.4	70.5 ± 9.7
UGCAUUCACAUGUAAACCAAA	89.4 ± 16	63.9 ± 4.1	59.8 ± 13	83.4 ± 11
UUAGAACACAUGUAAACCAAA	93 ± 16	107 ± 10	90 ± 4.5	122 ± 5.7
UAUACUCACAUGUAAACCAAA	83.7 ± 10	67.6 ± 6.3	99.1 ± 8.7	52.9 ± 3.1
UUUGCCAACAUGUAAACCAAA	69.6 ± 5.9	75.1 ± 3.2	81.1 ± 6.9	75.1 ± 8.3
UCAUCAUACAUGUAAACCAAA	83.2 ± 14	51.7 ± 11	42.1 ± 4.8	45.3 ± 8.7
UGACCUGACAUGUAAACCAAA	47.7 ± 11	50 ± 14	61 ± 9.3	41 ± 8.3

Sequence	cell viability (3LL) [%]	cell viability (H460) [%]	cell viability (HeyA8) [%]	cell viability (M565) [%]
UUACUGGACAUGUAAACCAAA	29.3 ± 3	51 ± 3.2	49.8 ± 4.7	22.5 ± 12
UCAAUCGACAUGUAAACCAAA	97.7 ± 15	66.2 ± 4.7	84.5 ± 15	76 ± 6.4
UGUCAGUACAUGUAAACCAAA	34.6 ± 8.7	38 ± 3.1	57.9 ± 10	35 ± 3.8
UAUACAUACAUGUAAACCAAA	119 ± 20	102 ± 5	108 ± 7.9	116 ± 32
UCCGUGUACAUGUAAACCAAA	80.5 ± 6.5	69.9 ± 9.8	59.3 ± 4.8	25.4 ± 6.4
UGAUGAAACAUGUAAACCAAA	74.4 ± 12	56.4 ± 5.9	76.6 ± 7.8	55.9 ± 6.8
UUGGAUUACAUGUAAACCAAA	87 ± 5.7	75.1 ± 7.7	88.9 ± 6.1	88.2 ± 2.3
UCUCGCUACAUGUAAACCAAA	93 ± 18	42.1 ± 2.5	88.2 ± 5	68.3 ± 12
UUACAUAACAUGUAAACCAAA	103 ± 6.7	58.3 ± 4	94.8 ± 1.4	91.9 ± 6.4
UGGUAUUACAUGUAAACCAAA	84 ± 12	63.4 ± 16	53.9 ± 10	73.9 ± 4.9
UGGCGUCACAUGUAAACCAAA	33.7 ± 28	28.2 ± 1.4	14.2 ± 3.3	13.3 ± 1.4
UACGAACACAUGUAAACCAAA	90.1 ± 11	76.2 ± 4.5	70.1 ± 4.2	62.2 ± 4.1
UGACUAAACAUGUAAACCAAA	87.8 ± 9.5	73.2 ± 7	90.6 ± 4.9	74.8 ± 14
UAGUCUAACAUGUAAACCAAA	94.8 ± 7.2	77.5 ± 12	88.4 ± 6.5	52.9 ± 8.5
UGGGCAUACAUGUAAACCAAA	52.3 ± 8.9	23.1 ± 5.1	2.09 ± 0.068	30.5 ± 4.8
UCGUUAUACAUGUAAACCAAA	87.2 ± 12	85.1 ± 11	77.4 ± 9.3	66.8 ± 3.7
UUGUACUACAUGUAAACCAAA	39.7 ± 2	46.9 ± 9.3	60.9 ± 5.5	41.4 ± 13
UCCUCUCACAUGUAAACCAAA	63.1 ± 10	41.4 ± 7.6	73.8 ± 4.8	58.9 ± 2.8
UGGCGAUACAUGUAAACCAAA	58.1 ± 13	40.6 ± 8.9	5.53 ± 0.69	28.4 ± 6.5
UACGCAAACAUGUAAACCAAA	89.7 ± 6.2	67.2 ± 9.1	90.9 ± 10	83.9 ± 17
UACCCGCACAUGUAAACCAAA	27.7 ± 9.5	49.6 ± 5.5	17.8 ± 3.3	51 ± 16
UUGAAACACAUGUAAACCAAA	39 ± 8.4	65.5 ± 0.97	67.7 ± 4.2	54.5 ± 9.6
UUCUACUACAUGUAAACCAAA	27.4 ± 3.6	40.2 ± 1.5	67 ± 2.6	37.2 ± 6.2
UCAGCCCACAUGUAAACCAAA	41.4 ± 7.6	30.5 ± 5.8	55.5 ± 0.82	10.4 ± 4.7

Reference: the supplement of paper PMC6206098
